# Experimental data from PubChem BioAssay AID504706 (National Center for Advancing Translational Sciences (NCATS), 2011).
# Screen size: about 320,000 compounds; about 200 (0.062%) were called active. This list was built around the results that the source calls inconclusive (neither active nor inactive); the mix of calls is not that of the screen. Calls follow the shape of the dose curve; as a rule, active = well fitted activation curve with a large enough effect; inconclusive = small, poorly fitted or top-dose-only effect; inactive = no such curve, though single readings can be large or run the other way. Potencies of inconclusive entries are left out as doubtful fits.
# Assay: qHTS assay for re-activators of p53 using a Luc reporter; also: nearly all actives have a fitted effect of over 45% in size; as to activity change, positive = activation: % of control where 0% means no effect
# Conditions: H1299 p53-A138V BP100-luciferase reporter, luminescence, 24 h; series mostly up to 92.2 µM; activity change, positive = activation: at the top concentration
# Procedure, shortened: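 p53-null H1299 cells stably carrying temperature-sensitive p53-A138V and a BP100-luciferase reporter were pinned with compounds (4-point, 1:5 series) and held 24 hrs at 37 deg C. Luminescence was read 10 min after detection reagent.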
# Potency is read from the fitted curve at half-maximal effect; tags tell the direction and shape of the fitted curve.
Structure (SMILES),Potency,"activity change, positive = activation"
CN1CCN(CC(=O)Nc2nc(-c3c[nH]c4ccccc34)cs2)CC1,"inconclusive [activator, full curve, poor fit]",
Cc1[nH]nc2c1C(Cc1ccccc1)C(C#N)=C(N)O2 (stereo unspecified),"inconclusive [activator, single point]",
COc1cccc(CN2C(=O)c3cccc(N)c3C2=O)c1,,inactive: 1.08%
Cc1nnc(NC(=O)c2ccc(N3CCCC3=O)cc2)s1,"inconclusive [activator, partial curve, poor fit]",
CCOc1ccc2nc(N3CCCC(C(=O)NCCCN4CCOCC4)C3)sc2c1 (stereo unspecified),"inconclusive [activator, partial curve, poor fit]",
O=[N+]([O-])c1ccc(/C=C/c2ccc3cccc(O)c3n2)cc1,"inconclusive [activator, partial curve, poor fit]",
CCC(=O)Nc1cccc(NC(=S)NC(=O)c2ccc(Cl)cc2Cl)c1,"inconclusive [activator, full curve, poor fit]",
c1ccc(C(c2ccccc2)N2CCN(c3nc4ccccc4n4cnnc34)CC2)cc1,,inactive: -6.19%
O=C(CN1CCN(c2ccc(F)cc2)CC1)Nc1ccccc1[N+](=O)[O-],,inactive: -2.11%
CC(C)N=c1scc(-c2cccs2)n1/N=C/c1ccc(O)c(O)c1O,"inconclusive [activator, partial curve, poor fit]",
CC(=O)NCCNC(=O)c1ccc(-n2c(C)ccc2C)cc1,"inconclusive [activator, single point]",
Nc1cccn2c(-c3ccc(Cl)c(Cl)c3)cnc12,"inconclusive [activator, partial curve, poor fit]",
COc1ccc(O)c(C(=O)c2cnc3nc4ccccc4n3c2)c1,"inconclusive [activator, single point]",
Cc1csc(NC(=O)CSc2nnc(C)c(=O)n2N)n1,,inactive: 20.1%
CCc1noc(C)c1C(=O)Nc1ncc(C)s1,"inconclusive [activator, single point]",
O=C(CSc1nnc2ccccn12)c1ccccc1,"inconclusive [activator, partial curve, poor fit]",
CC/C(Cc1ccccc1)=N\NC(=O)c1cc(C)oc1C,"inconclusive [activator, single point]",
Cc1ccc(S(=O)(=O)N2CCOCC2)cc1C(=O)Nc1nc(-c2ccccn2)cs1,"inconclusive [activator, partial curve, poor fit]",
CC(=O)c1c(C)[nH]c(C(=O)Nc2nccs2)c1C,"inconclusive [activator, partial curve, poor fit]",
CC(=O)N1N=C(c2ccc(C)o2)CC1c1ccc(Br)cc1 (stereo unspecified),,inactive: 12.6%
COc1ccc(-c2[nH]c(-c3cccc(OC)c3)nc2SCC(=O)NC2CCCC2)cc1,,inactive: 6.94%
CSc1nnc(C)c(/C=C/NOCc2ccc(Cl)cc2)n1,,inactive: 0.828%
CCOc1ccc(C(=O)N(CC)CC(=O)Nc2ccc3c(c2)OCCO3)cc1,"inconclusive [activator, partial curve, poor fit]",
CCOC(=O)c1nn(-c2ccc(C)c(C)c2)cc1O,"inconclusive [activator, partial curve, poor fit]",

Structure (SMILES),Potency,"activity change, positive = activation"
Cn1c(=N)n(CC(O)c2cccc3ccccc23)c2ccccc21 (stereo unspecified),"inconclusive [activator, single point]",
COC(=O)C(Cc1ccc(O)cc1)N1Cc2ccccc2C1=O (stereo unspecified),"inconclusive [activator, single point]",
O=c1ccc(/C=C/c2ccccc2)nn1Cc1ccccc1Cl,,inactive: -1.13%
O=C(NCCOc1ccc(Cl)cc1)c1ccc2c(c1)OCCO2,"inconclusive [activator, partial curve, poor fit]",
Cc1cc(C(=O)COC(=O)c2ccc(F)cc2)c(C)n1C,"inconclusive [activator, full curve, poor fit]",
Cc1cc(C(=O)OCC(=O)N(C)c2ccccc2)c(C)o1,,inactive: 2.25%
O=C(Nc1ccc2cn[nH]c2c1)c1ccc(Cl)c(S(=O)(=O)N2CCOCC2)c1,"inconclusive [activator, partial curve, poor fit]",
Cc1ccc(S(=O)(=O)CCC(=O)Nc2nnc(-c3ccco3)o2)cc1,"inconclusive [activator, single point]",
COc1cc(OC)c2c(-c3cccc(-c4ccc(OC)c(F)c4)c3)cc(=O)oc2c1,"inconclusive [activator, partial curve, poor fit]",
CCOc1cc(S(=O)(=O)N2CCN(S(=O)(=O)CC)CC2)c(OCC)cc1-n1cnnn1,,inactive: -2.97%
COc1ccc(C2=Nc3cccc4cccc(c34)N2)cc1,,inactive: -9.19%
Cc1cc(NC(=O)c2ccoc2C)ccc1Br,"inconclusive [activator, partial curve, poor fit]",
COc1ccc(C(=O)NC2CCN(CC(=O)NC3CCCCC3)CC2)cc1,,inactive: 0.204%
O=C(Nc1cccc(-c2cn3ccccc3n2)c1)c1cc2ccccc2oc1=O,"inconclusive [activator, partial curve, poor fit]",
COc1ccccc1CC(=O)Nc1cccc(C(=O)NN2C(=O)c3ccccc3C2=O)c1,,inactive: 2.32%
O=C(CCN1C(=O)/C(=C\c2ccccc2Cl)SC1=S)Nc1cccnc1,"inconclusive [activator, single point]",
COc1ccc(-c2noc(Cc3cccs3)n2)cc1,"inconclusive [activator, partial curve, poor fit]",
COCCCN1C(=O)c2ccc(C(=O)Nc3cccc(OC)c3)cc2C1=O,"inconclusive [activator, single point]",
CCN1C(=O)/C(=C/C=C2\C=CN(CC)c3ccccc32)SC1=S,"inconclusive [activator, full curve, poor fit]",
O=C(Nc1cccc(-c2nnc(-c3ccccc3)o2)c1)c1ccco1,,inactive: 1.68%
CCOC(=O)c1c(NC(=O)CSc2nnc(-c3cccnc3)o2)sc(C(C)=O)c1C,,inactive: -11.9%
COc1nc(-c2ccccc2)ccc1-c1noc(-c2ccco2)n1,"inconclusive [activator, partial curve, poor fit]",
Cc1nc(N2CCOCC2)c2c(C)c(C(=O)Nc3ccccc3C(F)(F)F)sc2n1,,inactive: -7.73%
O=C(/C=C/c1ccco1)N/C(=C\c1ccccc1)C(=O)NCCc1nc2ccccc2[nH]1,,inactive: 14.1%

Structure (SMILES),Potency,"activity change, positive = activation"
Cc1onc(-c2ccccc2Cl)c1C(=O)NCc1ccccc1F,,inactive: 18.8%
Clc1ss/c(=N\c2ccccn2)c1Cl,"inconclusive [activator, single point]",
CC(C)(C)C(=O)/C=C(\N)c1ccncc1,,inactive: -0.595%
O=C(c1ccc(-c2cc(Cl)ccc2Cl)o1)N1CCOCC1,,inactive: 2.78%
O=[N+]([O-])c1cccc(-c2ccc(SCc3cccnc3)nn2)c1,"inconclusive [activator, partial curve, poor fit]",
CC1(c2ccccc2)CC(C)(C)N2C(=O)/C(=C3\SC(=S)NC3=O)c3cccc1c32 (stereo unspecified),,inactive: 0.108%
CCOC(=O)C1(CCOc2ccccc2)CCN(Cc2nccn2CC)CC1,,inactive: -1.27%
CC(CCc1ccccc1)NC(=O)c1cccs1 (stereo unspecified),,inactive: 1.5%
O=C(COC(=O)c1cc(=O)[nH]c2ccccc12)Nc1nc(-c2cccc(Br)c2)cs1,"inconclusive [activator, partial curve, poor fit]",
COc1ccc(S(=O)(=O)N(CC(C)C)C2CCS(=O)(=O)C2)cc1OC (stereo unspecified),,inactive: -0.373%
CC1=C(C(=O)OCCOC(C)C)C(c2cccnc2)C2=C(CCCC2=O)N1 (stereo unspecified),,inactive: -14.3%
CCOC(=O)N/N=C/c1ccccc1F,"inconclusive [activator, partial curve, poor fit]",
Cc1cccc(C)c1NC(=O)c1cccc(COc2cc(Cl)ccc2Cl)c1,"inconclusive [activator, partial curve]",
CCOC(=S)SCC(=O)Nc1nc(-c2ccc(Br)cc2)cs1,"inconclusive [activator, partial curve, poor fit]",
Cc1cc(/C=C2\SC(=S)NC2=O)c(C)n1-c1cccc(O)c1,"inconclusive [activator, full curve, poor fit]",
Cc1ccc(-n2ncc3c2CCCC3NC(=O)CCN2CCCC2=O)cc1C (stereo unspecified),"inconclusive [activator, single point]",
Cc1cnc(C(=O)Nc2ccc(N3CCOCC3)cc2)cn1,"inconclusive [activator, partial curve, poor fit]",
CCOC(=O)c1cnc(-n2nc(C)cc2C)nc1N(C)C,"inconclusive [activator, partial curve, poor fit]",
COc1ccc(-c2csc(NC(=O)c3c(OC)cccc3OC)n2)cc1,,inactive: -2.79%
Cc1nn(-c2ccccc2)c(C)c1/C=N/NC(=O)c1cc(-c2ccc(Br)s2)[nH]n1,,inactive: -8.64%
O=C(CSc1nc2cc([N+](=O)[O-])ccc2n1-c1ccccc1)NCc1ccc2c(c1)OCO2,"inconclusive [activator, partial curve, poor fit]",
Cc1cc(C)n(-c2nc(-c3cccc(Cl)c3)cs2)n1,"inconclusive [activator, full curve, poor fit]",
COc1cc(OC)cc(-c2cc3ccc(OC)cc3cn2)c1,"inconclusive [activator, full curve, poor fit]",
